Laboratory results reported in PubChem BioAssay AID588855 (National Center for Advancing Translational Sciences (NCATS), 2011).
About 5,000 (1.2%) of roughly 410,000 compounds were called active. The shares of active, inactive and inconclusive entries below differ from those in the screen. The call rests on the fitted dose curve; in most records, active means well fitted inhibition curve with a large enough effect; inconclusive means small, poorly fitted or top-dose-only effect; inactive means no such curve, though single readings can be large or run the other way. Potencies of inconclusive entries are doubtful fits and often do not repeat.

Experiment: qHTS for Inhibitors of TGF-b; further: nearly all actives have a fitted effect of over 65% in size
Details: HepG2 CAGA-GFP TGF-b/SMAD3 reporter, GFP fluorescence, 18 h, TGF-beta stimulated, 500 pg/mL final; series mostly up to 46.1 µM
In short: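 Using HEPG2 CAGA-GFP reporter cells at 1000 cells/well, we pinned test compounds, stimulated with recombinant TGF-beta (500 pg/mL final) and measured total well GFP after 18 h.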
Potency means the concentration at half of the fitted maximal effect; tags describe the fitted curve by direction and shape.

| SMILES | Potency |
| --- | --- |
| COc1ccc(Cc2[nH]n3c(=O)cc(C(C)C)nc3c2-c2ccccc2)cc1 | inconclusive: 25.1 µM [inhibitor, single point] |
| CC1(Cc2ccc(Cl)c(Cl)c2)C(=O)Nc2c(Cl)ccc(Cl)c21 (stereo not given) | inconclusive: 31.6 µM [inhibitor, single point] |
| Cc1ccc2nc(-c3c[nH]c4ccccc34)c(Nc3ccccc3C)n2c1 | inactive |
| Cc1ccc(C(c2ccccc2)c2c(C)[nH]c3ccccc23)s1 (stereo not given) | active: 14.1 µM |
| CCCCNC(=O)CSc1nc(COc2ccccc2)nc2ccccc12 | inconclusive: 35.5 µM [inhibitor, single point] |
| COc1ccc(N2CCN(S(=O)(=O)CCNC(=O)COc3ccc(Cl)cc3)CC2)cc1 | inactive |
| S=c1sc2ccccc2n1CCc1ccncc1 | inconclusive: 35.5 µM [inhibitor, single point] |
| Cc1[nH]c2ccccc2c1CN1CCC(Cc2ccccc2)CC1 | inconclusive: 22.4 µM [inhibitor, single point] |
| COC(=O)c1ccc2c(c1)N(CC(=O)Nc1cccc(Cl)c1C)C(=O)c1ccccc1S2 | inactive |
| CC(CCc1ccccc1)NC(=O)COC(=O)c1cccc(N(C)C)c1 (stereo not given) | inconclusive: 14.1 µM [inhibitor, single point] |
| Cc1cccc(CNC(=O)c2oc3c(c2C)-c2nn(Cc4cccc(Cl)c4)cc2CC3)c1 | inconclusive: 6.31 µM [inhibitor, single point] |
| CCOc1cccc2sc(N(CCCN(C)C)C(=O)c3ccc(S(=O)(=O)N4CCCCCC4)cc3)nc12 | inconclusive: 20 µM [inhibitor, single point] |
| CCOC(=O)c1sc(=S)n(C)c1NC(=O)c1cccc(Br)c1 | inconclusive: 22.4 µM [inhibitor, single point] |
| COc1ccccc1NC(=O)NCCc1c[nH]c2ccccc12 | inconclusive: 22.4 µM [inhibitor, single point] |
| CCCc1nc2ccc(Br)cn2c1Cc1ccccc1OC | active: 15.8 µM |
| CCN1CCN(C2=C(Cl)C(=O)N(Cc3ccccc3)C2=O)CC1 | inactive |
| CC1CCCCC1NC(=S)NC(=O)c1sc2ccccc2c1Cl (stereo not given) | inactive |
| CSc1ccc(COC(=O)c2cc([N+](=O)[O-])ccc2N2CCOCC2)cc1 | inconclusive: 35.5 µM [inhibitor, partial curve, poor fit] |
| CCCCN(C)CCCNC(=O)Cn1ncc2c3ccccc3n(Cc3ccccc3F)c2c1=O | inactive |
| CCOC(=O)c1c(-c2ccco2)csc1NC(=O)COC(=O)c1cnc(C)cn1 | inactive |
| CCOP(=O)(c1ccccc1Cl)C1(O)CCCCC1 (stereo not given) | inconclusive: 0.708 µM [inhibitor, partial curve, poor fit] |
| CCOC(=O)CSc1n[nH]c(NC(=O)c2cccc(C)c2)n1 | inconclusive: 35.5 µM [inhibitor, single point] |
| O=C(CNC(=O)c1ccncc1)N/N=C/c1cc(Br)ccc1O | inconclusive: 11.2 µM [inhibitor, single point] |

| SMILES | Potency |
| --- | --- |
| Cc1cc(C)c2nc(N3CCN(C(=O)c4ccco4)CC3)sc2c1 | inactive |
| O=C(NCc1ccc(F)cc1)N1CCN(C(=O)c2ccccc2)CC1 | inactive |
| CN(C)c1ccc(C=c2c3ccccc3n3c2cc(-c2ccccc2)[n+]3C)cc1 | inconclusive: 2 µM [inhibitor, partial curve, poor fit] |
| Cc1ccccc1OCCN1C(=O)C(=O)c2cccc(C)c21 | inactive |
| C=CCN(CC=C)CCCOc1ccc(Br)cc1Cl | inactive |
| O=C(/C=C/c1ccc2c(c1)OCO2)NCCSCc1c(Cl)cccc1Cl | inconclusive: 35.5 µM [inhibitor, partial curve, poor fit] |
| Cc1ccccc1-c1nc(CS(=O)(=O)CC(=O)Nc2cc(F)ccc2F)c(C)o1 | inconclusive: 0.112 µM [inhibitor, full curve, poor fit] |
| CN1C(=S)SC(N(O)C(=O)Nc2ccc(Cl)c(Cl)c2)C1(C)C (stereo not given) | inconclusive: 7.94 µM [inhibitor, partial curve] |
| Cc1c(C(=O)Nc2cccc(Cl)c2)c2ccccn2c1CCc1ccncc1 | inconclusive: 35.5 µM [inhibitor, single point] |
| O=C(Nc1ccc2c(c1)OCO2)C1CCCCN1S(=O)(=O)c1ccc(F)cc1 (stereo not given) | inconclusive: 22.4 µM [inhibitor, single point] |
| Cc1ccc(-c2nc3nc(C)cc(C)n3c2Nc2ccc3c(c2)OCCO3)cc1 | inactive |
| Cc1cc(=O)oc2cc(OCC3CC(c4ccccc4)=NO3)ccc12 (stereo not given) | inactive |
| O=C(CSc1nc2c([nH]c3ccccc32)c(=O)n1-c1ccc(F)cc1)NC1CCCCC1 | inconclusive: 17.8 µM [inhibitor, partial curve, poor fit] |
| Cc1ccc(Cn2c(=N)n(CC(O)COc3ccccc3)c3ccccc32)cc1 (stereo not given) | inconclusive: 12.6 µM [inhibitor, partial curve, poor fit] |
| CCN(CCNCC(O)COCc1ccc(Cl)cc1)c1cccc(C)c1 (stereo not given) | inconclusive: 22.4 µM [inhibitor, single point] |
| CCN(CC)S(=O)(=O)c1cc(NC(=O)CNc2cccc(S(=O)(=O)N3CCOCC3)c2)ccc1C | inconclusive: 39.8 µM [inhibitor, partial curve, poor fit] |
| COc1cccc(-c2cc(C(=O)Nc3ccncc3)c3ccccc3n2)c1 | inactive |
| COc1cccc(C(C)(O)c2nc(-c3ccc(OC)c(OC)c3)cs2)c1 (stereo not given) | inactive |
| COc1ccc(CCNC(=O)COc2ccc(S(=O)(=O)NC3CCCCC3)cc2Cl)cc1OC | inconclusive: 0.708 µM [inhibitor, full curve, poor fit] |
| CCOc1ccc(NC(=O)c2c(NCc3sccc3C)sc3c2CCCCC3)cc1 | inconclusive: 25.1 µM [inhibitor, single point] |
| CCCNC(=S)N1CCN(c2nc(-c3ccc(C)cc3)cs2)CC1 | inconclusive: 12.6 µM [inhibitor, partial curve, poor fit] |
| C[C@H](CO)N1C[C@H](C)[C@@H](CN(C)C(=O)Nc2ccc(C(F)(F)F)cc2)Oc2c(NS(=O)(=O)c3ccc(F)cc3)cccc2C1=O | inconclusive: 35.5 µM [inhibitor, single point] |
